Laboratory results reported in the antibiotic and cytotoxicity screens of Wong et al. (2023).
The list shows a part of the results.

What was measured:
[1] = test system: HSkMC (human skeletal muscle cells); assay: cytotoxicity call (relative viability < 0.9); settings: 10 µM
[2] = test system: HepG2; assay: cytotoxicity call (relative viability < 0.9); settings: 10 µM
[3] = test system: S. aureus RN4220; assay: growth inhibition call (relative growth <= 0.2); settings: 50 µM

Structure (SMILES)	cytotoxicity call [1]	cytotoxicity call [2]	growth inhibition call [3]
C[C@H](CO)N1C[C@H](C)[C@@H](CN(C)S(=O)(=O)c2ccc(F)cc2)OCCCC[C@H](C)Oc2ccc(NC(=O)Nc3ccc4c(c3)OCO4)cc2C1=O	inactive	inactive	inactive
CCS(=O)(=O)N1CC[C@]2(CC1)CN(Cc1ccccc1OC)[C@H](CO)c1c2c2ccc(cc2n1C)OC	inactive	inactive	inactive
C[C@H](CO)N1C[C@H](C)[C@@H](CN(C)S(=O)(=O)c2ccc(Cl)cc2)OCCCC[C@H](C)Oc2ccc(NS(=O)(=O)c3cccs3)cc2C1=O	inactive	inactive	inactive
C#CCCCCCCCCCCCC(O)CC(O)CO (stereo not drawn)	inactive	inactive	inactive
CCCCCCCCCCCCCCCC(=O)OC1C(SC)OC(C(NC(=O)C2CC(CCC)CN2C)C(C)Cl)C(O)C1O.Cl (stereo not drawn)	inactive	inactive	inactive
Nc1ncnc2c1ncn2[C@H]1O[C@@H](CO)[C@H](O)[C@@H]1O	inactive	inactive	inactive
CC(C)(CO)C(O)C(=O)NCCC(=O)NCCSSCCNC(=O)CCNC(=O)C(O)C(C)(C)CO (stereo not drawn)	inactive	inactive	inactive
COc1ccc(NC(=O)Nc2ccc3c(c2)C(=O)N([C@@H](C)CO)C[C@@H](C)[C@H](CN(C)C(=O)Cc2ccccc2)OCCCC[C@H](C)O3)cc1	inactive	inactive	inactive
COc1ccc(S(=O)(=O)Nc2ccc3c(c2)CC(=O)N([C@H](C)CO)C[C@H](C)[C@@H](CN(C)S(=O)(=O)c2ccc(C)cc2)O3)cc1	inactive	inactive	inactive
Cc1cc(C(=O)COC(=O)Cn2cnc3c2c(=O)n(C)c(=O)n3C)c(C)n1C	inactive	inactive	inactive
COCC(=O)N1C[C@@H](C)[C@H](OC)CN(C)C(=O)c2ccc(NC(=O)Nc3cccc(F)c3)cc2OC[C@@H]1C	inactive	inactive	inactive
C[C@H]1CN([C@@H](C)CO)S(=O)(=O)c2ccc(C#Cc3ccc(F)cc3)cc2O[C@@H]1CN(C)C(=O)CN(C)C	inactive	inactive	inactive
C[C@@H]1CN([C@H](C)CO)C(=O)c2cc(C#CC3(O)CCCC3)cnc2O[C@H]1CN(C)C(=O)Nc1ccc2c(c1)OCO2	inactive	inactive	inactive
C[C@@H]1CCCCO[C@H](CN(C)C(=O)c2ccccc2)[C@H](C)CN([C@@H](C)CO)C(=O)c2cc(NC(=O)CCCCCC(=O)Nc3ccccc3N)ccc2O1	inactive	inactive	inactive
CCC(C)C(=O)OC1CC(C)C=C2C=CC(C)C(CCC3CC(O)CC(=O)O3)C21 (stereo not drawn)	inactive	inactive	inactive
O=C(CCCCCNC(=O)OCc1ccc(CO[C@H]2C[C@@H](C3CCCCC3)C=C(C(=O)N3CCN(Cc4ccccc4)CC3)O2)cc1)NO	inactive	inactive	inactive
C[C@H](CO)N1C[C@H](C)[C@H](CN(C)Cc2ccc(C(F)(F)F)cc2)Oc2c(NC(=O)Nc3ccc(F)cc3)cccc2C1=O	inactive	inactive	inactive
C[N+](C)(C)CCCCNC(=O)[C@H]1C[C@H]2C(=O)N[C@@H](CCCC[N+](C)(C)C)C(=O)N2[C@H]1c1cccc(OCCO)c1	inactive	inactive	inactive
C[C@@H]1CN([C@@H](C)CO)C(=O)c2cc(NC(=O)Nc3ccc(F)cc3)ccc2O[C@@H](C)CCCCO[C@@H]1CN(C)C(=O)NC1CCCCC1	inactive	inactive	inactive
COC(=O)c1cnn2c(=O)c3c([nH]c12)CCC3	inactive	inactive	inactive
C[C@H](CO)N1C[C@H](C)[C@H](CN(C)Cc2ccc(Cl)c(Cl)c2)OCCCC[C@H](C)Oc2ccc(NC(=O)Nc3ccc(C(F)(F)F)cc3)cc2C1=O	inactive	active	inactive

Structure (SMILES)	cytotoxicity call [1]	cytotoxicity call [2]	growth inhibition call [3]
C[C@@H]1CN([C@@H](C)CO)C(=O)c2cccc(NC(=O)Nc3ccc(C(F)(F)F)cc3)c2O[C@H]1CN(C)Cc1ccccc1	active	inactive	inactive
NCCn1cccc1	inactive	inactive	inactive
Cc1ccc(S(=O)(=O)N(C)C[C@@H]2OCCCC[C@@H](C)Oc3ccc(NC(=O)Nc4ccc(F)cc4)cc3C(=O)N([C@@H](C)CO)C[C@H]2C)cc1	inactive	inactive	inactive
Cc1ccc(S(=O)(=O)Nc2cccc3c2O[C@H](CN(C)C(=O)NC(C)C)[C@H](C)CN([C@H](C)CO)C3=O)cc1	inactive	inactive	inactive
C[C@H](CO)N1C[C@H](C)[C@@H](CN(C)CC2CC2)OCCCC[C@H](C)Oc2ccc(NC(=O)NC3CCCCC3)cc2C1=O	inactive	inactive	inactive
COc1ccccc1-c1cccc(-c2nc(C(=O)NCc3ccncc3)cc3c2[C@@H](CCO)N([S@@](=O)C(C)(C)C)C3)c1	inactive	inactive	inactive
O=C1CN(S(=O)(=O)Cc2ccccc2)C[C@@H]2[C@@H](c3ccc(C#Cc4ccc(F)cc4)cc3)[C@@H](CO)N12	active	active	inactive
C[C@@H]1CCCCO[C@H](CN(C)C(=O)Nc2ccccc2)[C@@H](C)CN([C@H](C)CO)C(=O)c2cc(NS(=O)(=O)c3cccs3)ccc2O1	inactive	inactive	inactive
CC(=O)N[C@H]1[C@H](Oc2nc3cc(C)ccc3o2)O[C@H](CO)[C@@H](O)[C@@H]1O	inactive	inactive	inactive
Cc1noc(C)c1S(=O)(=O)N(C)C[C@@H]1OCCCC[C@@H](C)Oc2ccc(NS(C)(=O)=O)cc2C(=O)N([C@H](C)CO)C[C@@H]1C	inactive	inactive	inactive
Cc1c(C)n2c3c(=O)[nH]c(=O)n(C)c3nc2n1C	inactive	inactive	inactive
COc1cccc(S(=O)(=O)Nc2ccc3c(c2)[C@H]2C[C@@H](CC(=O)NCc4ccccc4F)O[C@@H](CO)[C@H]2O3)c1	inactive	inactive	inactive
O=c1[nH]ccn(-c2ccccc2)c1=O	inactive	active	inactive
C[C@@H]1CN([C@H](C)CO)C(=O)CCCn2nncc2CO[C@H]1CN(C)Cc1ccc(C(=O)Nc2ccccc2N)cc1	inactive	inactive	inactive
C[C@H](CO)N1C[C@H](C)[C@H](CN(C)S(=O)(=O)c2ccc(F)cc2)Oc2ccc(NC(=O)Cn3cnnn3)cc2CC1=O	inactive	inactive	inactive
C[C@@H]1CN([C@H](C)CO[Si](C)(C)C(C)(C)C)C(=O)c2cc(NC(=O)Nc3ccccc3)ccc2O[C@@H](C)CCCCO[C@H]1CN(C)S(=O)(=O)c1ccc(F)cc1	inactive	inactive	inactive
Cc1noc(C)c1NC(=O)Nc1ccc2c(c1)CC(=O)N([C@H](C)CO)C[C@H](C)[C@@H](CN(C)Cc1ccc(C(=O)Nc3ccccc3N)cc1)O2	inactive	inactive	inactive
C[C@@H]1CCCCO[C@H](CN(C)CC2CC2)[C@H](C)CN([C@@H](C)CO)C(=O)c2cc(NC(=O)Nc3ccccc3)ccc2O1	inactive	inactive	inactive
COCC#Cc1ccc2c(c1)O[C@H](CN(C)Cc1ccc3c(c1)OCO3)[C@H](C)CN([C@H](C)CO)S2(=O)=O	inactive	inactive	inactive
O=C(NCCN1CCOCC1)C(=O)NC[C@H]1OCCN1S(=O)(=O)c1ccc(F)cc1	inactive	inactive	inactive
